Laboratory results taken from the RNAGym collection of RNA variant scans (doi:10.1073/pnas.2313332121).
This sample is rich in variants without activity.

B1: TPR 5TU (parent)
chain: GGAUCUUCUCGAUCUAACAAAAAAGACAAAUCUGCCACAAAGCUUGAGAGCAUCUUCGGAUGCAGAGGCGGCAGCCUUCGGUGGCGCGAUAGCGCCAACGUUCUCAACUAUGACACGCAAAACGCGUGCUCCGUUGAAUGGAGUUUAUCAUG

Variants of: B1
Test: polymerase ribozyme fitness, log enrichment relative to wild type (log ratio); higher = more active; in vitro selection for triplet polymerase activity
Summary of the method: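 The heterodimeric triplet polymerase ribozyme's subunits were each mutagenized into PCR-built libraries and transcribed. Every library was selected once, in triplicate, by annealing with a biotinylated primer, the partner subunit and triplets, incubating frozen at −7 °C, gel-excising extended constructs, capturing on streptavidin beads and running RT-PCR. Input and output libraries were Illumina-sequenced, with genotypes kept only at ≥10 input reads and ≥1 read per output. Fitness, from inverse-variance-weighted replicate averages, is the base-2 logarithm of genotype enrichment over wild-type enrichment.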

Variant	polymerase ribozyme fitness (log ratio)
C32U A40C A52G G59A G88A G92A A115U U151G	≤ -4.2
C32U C57G G58U G67A	≤ -4.2
C32A G59A G94A A97U C129A A137C	≤ -4.2
C32A C43U A52G G86A A137G U145C	≤ -4.2
U31G A97C A106C	≤ -4.2
U31C G58A G94U G143U	-2.9
C32U C69A C85A A89U G141A U144A	≤ -4.2
U31G G50U U82C A106C	≤ -4.2
U31C G71A G86C C118A U151G	≤ -4.2
C32U G48C C63U G65C C87U A91U A121C A150G	≤ -4.2
U31C C63U G80U C103G G140U	≤ -4.2
C32G U44A U56G C87U U139G	≤ -4.2
U31G G71U	≤ -4.2
C32A G42A G59U C85A U101G C108U U151C	≤ -4.2
U31C G42A U44G A60G A66G U82A C85A G128A	≤ -4.2
C32G U55A	-3.78
U31C A41C C43U G50C U78A U145A	≤ -4.2
U31C G68U C85G C99G A106C A142C	≤ -4.2
C32U G50U C95A C131U G143A U151C	≤ -4.2
U31G C57G A60C C87G	≤ -4.2
U31G G42C C51U G94A U102C G124C G136U G152A	≤ -4.2

Variant	polymerase ribozyme fitness (log ratio)
C32G U101G C125U A150G	≤ -4.2
C32G G48A C57A A66C U82C C93U U151A	≤ -4.2
C32A A39C G59A C72A A91G	≤ -4.2
U31G U44A C69A G71U	≤ -4.2
U31G C87U U127A	-3.89
C32G A41C C51U A52C C75U G84U A113C	≤ -4.2
C32A G58U	≤ -4.2
C32A G58C	≤ -4.2
U31G U45G A47C C79A A89C A97G	≤ -4.2
C32U C51A G58A G83U C96G C116A G117C C125U A138G G143A	≤ -4.2
C32A C51A C54A G92A A97U U146C	≤ -4.2
C32G G46C C105U A120U	≤ -4.2
C32G A47C U55A U56G G67U G88A G100C C105U A137U G141U	≤ -4.2
U31C C93U C131U	1.12
C32U C63U A91U C96U A113U G124C	≤ -4.2
U31C G83C U111C G152A	-3.66
C32G G88A A106G C114G G140C	≤ -4.2
C32G C99U	≤ -4.2
C32G G59A G83A A98C A110G	-4.09
C32A U77G G88A G126C G143U	≤ -4.2
U31G C32G A47C C95G A121C U134A G141C	≤ -4.2

Variant	polymerase ribozyme fitness (log ratio)
C32G A40U G58C G62A G94A C118G	≤ -4.2
C32U G46A C51G U53C G67C G86U U101G A138U	≤ -4.2
U31G U33A A60G G81C C93A	≤ -4.2
C32G C93U A119U A147U	≤ -4.2
C32U C96G	-1.58
C32A G46C U53A G67U C76A G84A	≤ -4.2
C32G U53G U111G	≤ -4.2
C32G U56A C76A C85G A89G C131U A137G U151G	≤ -4.2
C32G A49C C72U U151A	≤ -4.2
C32G A121C G124U A142G	≤ -4.2
C32G A37C G140C	≤ -4.2
U31G A52C G83A	-2.81
C32A G50U U55A C85A	≤ -4.2
C32U G48A U78A A91G C118A	≤ -4.2
U31C A52C C54U U139C G143U	≤ -4.2
C32G C96U C116G G141U	≤ -4.2
U31C C79A	≤ -4.2
C32U A37C G68A G80A C87U C95G	≤ -4.2
C32G A52C C85A A89G A115C	≤ -4.2
C32G C54U G94A	≤ -4.2
U31G A49C C54A	≤ -4.2

Variant	polymerase ribozyme fitness (log ratio)
C32G G42C U44A G88C C95U C103G	≤ -4.2
U31C C76U C96U G136C U144C U148C	-3.9
C32G U102G	≤ -4.2
C32A C51G C72U C85G A97C U101G	≤ -4.2
C32A G46A C79G C85G G100U A121G	≤ -4.2
C32A G67A G83A	≤ -4.2
C32G U61A G92U C131U	≤ -4.2
C32G C87G C118G	≤ -4.2
U31C G59C G68C G83A C99U	≤ -4.2
U31C G86U C96U	-0.694
U31C U55A U101C	0.401
C32A G50A C54U U55G G68A C103A	≤ -4.2
C32G C51U C63A C103A	≤ -4.2
U31C U45A A97U G117A	-4.09
U31G G83A A138G	≤ -4.2
C32U G59C A89C G94C	-3.87
U31C C93U A120G	0.174
C32G C76G G81A	≤ -4.2
C32U C103U	-2.66
C32A A47U C87U	≤ -4.2
C32A G80A A121G G133C	≤ -4.2
